Data taken from patent US7642367B2, “Diamino-functional chalcones” (Lica Pharmaceuticals A/S, priority 2002, dated 2010).

System: S. aureus ATCC29213
Experiment: Killing curve (time-kill) / broth macrodilution MIC
Assay type: cell-based, Staphylococcus aureus

Compound: COc1ccc(C(=O)/C=C/c2cc(-c3ccccc3OC)ccc2N2CCCN(C)CC2)c(F)c1 [B143, (E)-1-(2-Fluoro-4-methoxy-phenyl)-3-[2′-methoxy-4-(4-methyl-[1,4]diazepan-1-yl)-biphenyl-3-yl]-propenone]
- dependence of the bactericidal action: primarily-dependent on the concentration of the test compound
